# Measured values published in PubChem BioAssay AID686978 (National Center for Advancing Translational Sciences (NCATS), 2013).
# Values joined by “and” are separate entries in the source; they are usually repeats but may differ in a detail not shown here. Equal values may be shown once. Among all 420,000 compounds or so, about 64,000 (15%) were called active. Inconclusive means that the source gave no clear call. Such entries were picked first, then a sample of the others. The call rests on the fitted dose curve; in most records, active means well fitted inhibition curve with a large enough effect; inconclusive means small, poorly fitted or top-dose-only effect; inactive means flat fitted curve, though single readings scatter. Potencies beside an inconclusive call are fits to weak or partial responses and may not hold up.
# Experiment: qHTS for Inhibitors of human tyrosyl-DNA phosphodiesterase 1 (TDP1): qHTS in cells in absence of CPT; further: nearly all actives have a fitted effect of over 55% in size
# Details: DT40 Tdp1-/- hTDP1 cells, no CPT, ATP luminescence, 48 h; activity change, negative = growth inhibition: at 46.2 µM (top of the series)
# How it was run: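 No-CPT arm: Tdp1-/-;hTDP1 DT40 cells (400/well) plus compounds, incubated ≥48 hr at 37 °C. Readout CellTiter-Glo luminescence.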
# On the % scale 0 is the no-effect control and ±100 the full control effect; potency means the concentration at half of the fitted maximal effect; tags describe the fitted curve by direction and shape.
Structure (SMILES),Potency,"activity change, negative = growth inhibition"
CCC1(c2ccc(OC)cc2)NC(=O)N(CC(=O)NC2CCCCC2C)C1=O (stereo unspecified),inactive,
Cc1nc2cc(C(=O)NC3CCCCCC3)ccc2n1-c1ccc(Br)cc1,"inconclusive: 29.1 µM [inhibitor, single point]",
CCC(C)N(C(=O)CSc1nc(C)c(C)c(C)c1C#N)C1CCS(=O)(=O)C1 (stereo unspecified),active: 20.6 µM,
CCN1CCN(C(c2ccccc2OC)c2nnnn2C2CCCCC2)CC1 (stereo unspecified),inactive,
C/C(Cl)=C/Cn1c(=O)c2c(nc(Br)n2Cc2ccccc2)n(C)c1=O,active: 20.6 µM,
CC(=O)N1CCc2cc(Br)cc(S(=O)(=O)CCC(=O)N3CCN(c4ccccc4)CC3)c21,inactive,
Cc1ccc(C)c(N2CCN(C(=O)CSc3ccsc3[N+](=O)[O-])CC2)c1,"inconclusive: 16.4 µM [inhibitor, single point]",
Cc1ccc([N+](=O)[O-])c(C)[n+]1C,"inconclusive: 29.1 µM [inhibitor, single point]",
CC(=O)c1cc(Cl)ccc1OCC(=O)NC1CCCC1,"inconclusive: 16.4 µM [inhibitor, single point]",
Cc1csc2c(=O)n(CCO)c(=O)[nH]c12,inactive,
O=C(NCc1cccc(CNC(=O)Nc2cccc(O)c2)c1)Nc1cccc(O)c1,inactive,
CC1(C(=O)NS(=O)(=O)C2CC2)CCN(C(=O)c2ccc3c(c2)OCO3)C1 (stereo unspecified),inactive,
C[C@H]1C(c2ccc(F)cc2)=NN(c2ccccc2)[C@@H]1CO,inactive,
C[C@@H]1CN([C@@H](C)CO)C(=O)CCCn2nncc2CO[C@@H]1CN(C)S(=O)(=O)c1ccc2c(c1)OCCCO2,,inconclusive: -30.8% [inhibitor]
Cc1sc2nc(Cc3ccccc3)[nH]c(=O)c2c1-c1ccccc1,inactive,
CCC(C(=O)Nc1cc(C)nn1-c1nc(C)cc(C)n1)c1ccccc1 (stereo unspecified),active: 18.4 µM,
Cc1ccccc1CC(=O)OCC(=O)Nc1ccc(C)c(S(=O)(=O)N2CCCCC2)c1,inactive,
CC(=O)N1c2ccc(S(=O)(=O)N(C)CC(=O)Nc3cccc(C)c3)cc2CC1C (stereo unspecified),"inconclusive: 29.1 µM [inhibitor, single point]",
CCN(CC)c1cnn(C/C(=N\OC)c2ccc(Cl)cc2)c(=O)c1Br,"inconclusive: 29.1 µM [inhibitor, single point]",
COCCCn1cc(CN2CC(N3CCN(C4CCN(C)CC4)CC3)CS2(=O)=O)nn1 (stereo unspecified),inactive,
Cc1cc(-c2ccc(C)c(S(=O)(=O)NCCc3ccc(S(N)(=O)=O)cc3)c2)on1,"inconclusive: 23.1 µM [inhibitor, single point] and inconclusive: 8.2 µM [inhibitor, partial curve]",
CC1Cc2ccccc2N1S(=O)(=O)c1cccc(C(=O)N2Cc3ccccc3CC2C(N)=O)c1 (stereo unspecified),active: 8.2 µM,
COc1ccc(OC)c(C(=O)c2ccc(C(=O)N3CCCCC3)cc2)c1,"inconclusive: 23.1 µM [inhibitor, single point]",
Cc1cccc(CNC(=O)C2CCC(=O)N(CC3CCCCC3)C2)c1 (stereo unspecified),"inconclusive: 29.1 µM [inhibitor, single point]",

Structure (SMILES),Potency,"activity change, negative = growth inhibition"
CSc1ccc(C(=S)N2CCCCCC2)cc1,"inconclusive: 23.1 µM [inhibitor, single point]",
c1ccc(Cn2nnnc2C(c2cccs2)N2CCSCC2)cc1 (stereo unspecified),inactive,
C=CCNC(=S)N/N=C/c1cn(-c2ccccc2)nc1-c1ccc(OC)cc1,active: 9.2 µM,
CC1(C)CC(=O)c2cnc3nc4ccccc4n3c2C1,"inconclusive: 5.17 µM [inhibitor, partial curve]",
COc1ccc(-c2cc(C)no2)cc1S(=O)(=O)N(C)Cc1ccco1,"inconclusive: 25.9 µM [inhibitor, single point]",
O=C(NNc1nc(-c2ccc(F)cc2)cs1)c1ccccc1,active: 4.11 µM,
CCN(CCCC(=O)c1ccc(F)cc1)CCc1ccccc1,"inconclusive: 25.9 µM [inhibitor, single point]",
O=C(CCCC1=NS(=O)(=O)c2ccccc2N1)OCc1ccc(Cl)cc1,"inconclusive: 20.6 µM [inhibitor, single point]",
Cc1cccc(OCC(O)Cn2c(N3CCCCC3)nc3c2c(=O)[nH]c(=O)n3C)c1 (stereo unspecified),active: 23.1 µM,
Clc1ccc(COn2c(-c3ccc(Cl)cc3Cl)nc3ncccc32)cc1,"inconclusive: 23.1 µM [inhibitor, single point]",
CC(/C=C/c1ccccc1)=N\NC(=O)c1cc(C)nc2ccccc12,"inconclusive: 29.1 µM [inhibitor, single point]",
COC(=O)c1cc(OC)c(OC)c(OC)c1N,inactive,
Cc1cc(C)n2nc(/C(C#N)=C/c3ccccn3)c(C#N)c2n1,active: 9.2 µM,
O=C(CCCn1c(=S)[nH]c2ccccc2c1=O)N1CCN(c2cccc(Cl)c2)CC1,active: 18.4 µM,
Cc1ccc([N+](=O)[O-])cc1NC(=O)CSc1nncc2ccccc12,"inconclusive: 13 µM [inhibitor, partial curve]",
Cc1ccc(NC(=O)c2c(NC(=O)Cc3ccccc3)sc3c2CCCC3)cc1,"inconclusive: 29.1 µM [inhibitor, single point]",
N#Cc1ccsc1NC(=O)C1CCCN1S(=O)(=O)c1cccs1 (stereo unspecified),inactive,
O=C(NCC1CCCO1)c1sc(=S)n2c1[nH]c(=O)c1ccc(C(=O)N3CCCCC3)cc12 (stereo unspecified),inactive,
CN(C)c1nc(Cl)nc(N(C#N)CCOc2ccccc2)n1,inactive,
CC(=O)c1cccc(NC(=O)Cn2c(=O)oc3cc(S(=O)(=O)N4CCCC4)ccc32)c1,inactive,
O=C1C=C(OCCF)CC(c2cccc(Cl)c2)O1 (stereo unspecified),"inconclusive: 29.1 µM [inhibitor, single point]",
COc1cc2oc(=O)cc(-c3ccc(-c4ccc(C(F)(F)F)cc4)cc3)c2c(OC)c1OC,"inconclusive: 3.26 µM [inhibitor, full curve]",
CCn1c2ccccc2c2cc(/C=N/NC(=O)c3cc(O)cc(O)c3)ccc21,"inconclusive: 16.4 µM [inhibitor, partial curve]",
CCC1(C)Cc2nc3sc(C(=O)O)c(N)c3cc2CO1 (stereo unspecified),"inconclusive: 25.9 µM [inhibitor, single point]",

Structure (SMILES),Potency,"activity change, negative = growth inhibition"
Cc1ccc(N2C(=O)c3cccc4c(Oc5ccccc5[N+](=O)[O-])ccc(c34)C2=O)c(C)c1,active: 6.51 µM,
c1ccc(CN(CC2=NCCN2)c2ccccc2)cc1,"inconclusive: 23.7 µM [inhibitor, partial curve, poor fit] and inconclusive: 29.1 µM [inhibitor, single point] and inconclusive: 16.4 µM [inhibitor, partial curve]",inconclusive: -31.8% [inhibitor]
CCCSc1nc2sc3c(c2c(=O)[nH]1)CC(C)(CC)OC3 (stereo unspecified),"inconclusive: 16.4 µM [inhibitor, single point]",
COC(=O)c1c(-c2ccc(Br)cc2)csc1NC(=O)Cc1ccc(OC)c(OC)c1,active: 10.3 µM,
O=C(c1ccncc1)N1CCC2(CC1)CCN(c1ccccn1)CC2,"inconclusive: 14.6 µM [inhibitor, partial curve, poor fit]",
Oc1[nH]c2ccccc2c1N=Nc1ccccc1Cl,inactive,
CCCCNC(=O)C[C@@H]1C[C@@]2(C(=O)OC)CCCCC=C2N(Cc2ccco2)C1=O,"inconclusive: 32.6 µM [inhibitor, single point]",
CN(CCO)C(=O)c1cn(C2CCCN(Cc3ccc(C(F)(F)F)cc3)C2)nn1 (stereo unspecified),"inconclusive: 23.1 µM [inhibitor, single point]",
CCOC(=O)[C@]12CCCC=C1N(CCC1=CCCCC1)C(=O)[C@H](CC(=O)N1CCCC1)C2,active: 2.31 µM,
COc1ccc(CC(N)c2csc(NC(=O)Cc3ccccc3)n2)cc1 (stereo unspecified),"inconclusive: 29.1 µM [inhibitor, single point]",
CCOC(=O)c1ccc(S(=O)(=O)N2CCN(c3nc(-c4cccs4)nc4ccccc34)CC2)cc1,inactive,
COc1ccc(OC)c(C=Cc2ccc([N+](=O)[O-])cc2)c1,"inconclusive: 16.4 µM [inhibitor, partial curve]",
CCOc1cc(/C=C2\N=C(C)OC2=O)cc(Br)c1OCC(=O)OC,"inconclusive: 8.2 µM [inhibitor, partial curve]",
COc1ccc(-c2csc(C(C)(NC(C)=O)c3ccccc3)n2)cn1 (stereo unspecified),"inconclusive: 29.1 µM [inhibitor, single point]",
COc1ccc(NC(=O)CSc2nnc(NC(=O)c3ccccc3C(=O)O)s2)cc1,"inconclusive: 25.9 µM [inhibitor, single point]",
Clc1nc(CN2CCCCC2)nc2sc3c(c12)CCCC3,active: 10.3 µM,
Nc1c(C(=O)N/N=C/c2cccnc2)oc2nc(-c3ccco3)cc(-c3ccco3)c12,active: 0.461 µM,
Cc1cc(C(F)F)n2nc(C(=O)Nc3cccc(S(=O)(=O)N4CCOCC4)c3)nc2n1,inactive,
COc1ccc2c(c1OC)C(=O)N1C2SC[C@H]1C(=O)NC1CCCCC1 (stereo partly specified),"inconclusive: 29.1 µM [inhibitor, single point]",
CN(C)c1ccc(CNC(=O)c2ccc(NC(=O)N3CCCCc4ccccc43)cc2)cc1,"inconclusive: 18.4 µM [inhibitor, single point]",
Cc1ccc(C(=O)Nc2cccc(Oc3ccccc3)c2)o1,"inconclusive: 29.1 µM [inhibitor, single point]",
O=C(CCN1C(=O)/C(=C/c2ccccc2Cl)SC1=S)Nc1cccnc1,"inconclusive: 29.1 µM [inhibitor, single point]",
